# Results taken from patent publication US9421274B2, “Bio-orthogonal drug activation” (Koninklijke Philips N.V., priority 2011, dated 2016).
# Tests used:
# [1] = Stability of trans-cyclooctene derivatives in PBS; format: physicochemical; conditions: PBS buffer, 20° C., in the dark
# [2] = Activation of doxorubicin prodrugs 50 and 51 by tetrazines (HPLC-MS); conditions: after 1 hr at 20° C.
# Text: The half-life time of this release was 4 days.
# [3] = system: A431 squamous carcinoma cells; experiment: Cell proliferation assay (MTT) with doxorubicin prodrug 50 and tetrazine 29; format: cell-based; conditions: Homo sapiens, A-431, 6 h, A431 cell line, 6 h incubation at 37° C. followed by medium replacement
# Procedure: In a parallel experiment, a solution of tetrazine 29 (2 mM in PBS) was serially diluted (from 1 mM to 1 nM) in pre-warmed culture medium and added to A431 cells in a 96-well plate, which was incubated at 37° C. for 72 hrs.
# [4] = Activation of doxorubicin prodrugs 38 by tetrazines (HPLC-MS); conditions: 20° C.
# [5] = system: A431 squamous carcinoma cells; experiment: Cell proliferation assay (MTT) with doxorubicin prodrug minor-38 and tetrazine 7; format: cell-based; conditions: Homo sapiens, A-431, 72 h, A431 cell line
# [6] = activator tetrazine 7 (equimolar, c=25 µM), PBS, 16 hr
structure (smiles),measurement,setting,value
"Cc1cc(C)cc(NC(=O)OC2/C=C/CCCCC2)c1 (stereo not drawn) [33 minor isomer, (E)-cyclooct-2-en-1-yl(3,5-dimethylphenyl)carbamate]",half-life at 83 µM,[1],> 20 days
COc1cccc2c1C(=O)c1c(O)c3c(c(O)c1C2=O)C[C@@](O)(C(=O)CO)C[C@@H]3OC1CC(NC(=O)OCc2ccc(OC(=O)NC3CC/C=C/CCC3N)cc2)C(O)C(C)O1 (some centres unmarked) [Prodrug 50],doxorubicin released,"[2]; activator 3,6-diphenyl-1,2,4,5-tetrazine",48%
same,doxorubicin released,"[2]; activator 3-(5-acetamido-2-pyridyl)-6-(2-pyridyl)-1,2,4,5-tetrazine (5)",30%
same,doxorubicin released,"[2]; activator 3-(5-butyramido-2-pyridyl)-6-(2-pyrimidyl)-1,2,4,5-tetrazine",20%
same,doxorubicin released,"[2]; activator 3-methyl-6-(2-pyridyl)-1,2,4,5-tetrazine (7)",52%
same,doxorubicin released,"[2]; activator 4-(1,2,4,5-tetrazin-3-yl)phenylmethanamine",50%
same,IC50,[3]; + tetrazine 29 (10 μM),49 ± 4 nM
same,IC50,[3]; compound alone,128 ± 17 nM
"COc1cccc2c1C(=O)c1c(O)c3c(c(O)c1C2=O)C[C@@](O)(C(=O)CO)C[C@@H]3OC1CC(NC(=O)OC2/C=C/CCCCC2)[C@H](O)C(C)O1 (some centres unmarked) [38 minor, (E)-cyclooct-2-en-1-yl doxorubicin carbamate]",release of doxorubicin (yield),"[4]; activator 3,6-bis(2-aminophenyl)-1,2,4,5-tetrazine (9), acetonitrile/PBS, 18 hr",90%
same,release of doxorubicin (yield),"[4]; activator tetrazine 7 (equimolar, c=25 μM), PBS, 4 hr",69%
same,IC50,"[5]; + tetrazine 7 (10 μM, constant amount), 72 hr",278 ± 22 nM
same,IC50,"[5]; + tetrazine 7 (1.5 eq., serial dilutions), 72 hr",137 ± 12 nM
same,IC50,"[5]; compound alone, 72 hr incubation, ± standard error",3020 ± 486 nM
same,half-life at 83 µM,[1],> 20 days
"O=C(NCc1ccccc1)OC1/C=C/CCCCC1 (stereo not drawn) [32 major isomer, (E)-cyclooct-2-en-1-yl benzylcarbamate]",half-life at 83 µM,[1],> 20 days
"COc1cccc2c1C(=O)c1c(O)c3c(c(O)c1C2=O)C[C@@](O)(C(=O)CO)C[C@@H]3OC1CC(NC(=O)OC2/C=C/CCCCC2)[C@H](O)C(C)O1 (some centres unmarked) [38 major, (E)-cyclooct-2-en-1-yl doxorubicin carbamate]",conversion of the DA-reaction,[4]; [6],40%
same,release of doxorubicin (yield),[4]; [6],20%
